# Experimental data reported in the supplement of paper PMC7826260.
# Some of the results follow. Viral Rep nickase domains cut single-stranded DNA in vitro at 3 µM enzyme and 37 °C for 1 h; the strands have 90 letters, of which the middle is given. Uncut reads are compared with the no-enzyme pool on a log2 scale; uncut sequences lie near 0, cut ones below; no hit call is given. The scaling is to total reads; uncut strands gain when others are lost, and binding without cutting may add a little.
# System: T1, Rep nickase domain of cabbage leaf curl virus
# T1 sequence (protein, residues 1-116, tag omitted): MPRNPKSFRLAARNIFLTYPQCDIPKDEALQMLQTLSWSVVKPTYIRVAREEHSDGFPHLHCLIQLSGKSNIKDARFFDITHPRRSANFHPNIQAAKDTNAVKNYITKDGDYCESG
# Assay: uncleaved DNA left, log2 of reads against the no-enzyme library (log2 ratio); higher = less cleavage (more negative = more Rep cleavage of the k-mer); sequences stand for … in CTCGTCCG…ACCGGAGA
# Description: (§1)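 A pool of 90-nt single-stranded DNAs with seven random bases just before the constant AC of the nick site (name = the seven bases) was cut by 3 µM recombinant His6-SUMO-tagged Rep nickase domain (300 nM DNA, 50 mM HEPES pH 8.0, 50 mM NaCl, 1 mM MnCl2, 1 h, 37 °C, three replicates). Uncut DNA was amplified and sequenced.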
row,Sequence,uncleaved DNA left (log2)
1,CACCCTT,-0.611
2,CTTAGGC,0.219
3,TGCTTCT,-0.22
4,GGAGTAC,0.698
5,GGGATCG,0.66
6,TTCTGCT,-0.799
7,GATCATT,0.384
8,CTGCCCT,-0.0141
9,CGACCGA,-0.0396
10,TGGACAC,0.822
11,ACCTGAG,-0.251
12,TAGTGTC,-0.0426
13,ACTTATT,-0.776
14,TGTGGTG,-0.47
15,CTGAGAC,0.288
16,GGTTGGA,0.59
17,CCCCTCT,-0.139
18,AATCCGG,0.468
19,AGGACGG,0.0289
20,TACGAAT,-0.347

row,Sequence,uncleaved DNA left (log2)
1,CTTCATG,-0.723
2,ACCATCA,-0.321
3,GACCCCT,0.0359
4,AACATCT,-0.654
5,GCGGATC,0.76
6,CTATACA,0.0104
7,ATAAGTG,-0.708
8,CTTAACA,-0.406
9,CAAAACC,-0.0829
10,GAAATTA,0.194
11,GGGGGCT,0.876
12,CTTAATA,-0.0729
13,AAATGGC,-0.532
14,TTCACAA,0.294
15,TCCGCGG,0.332
16,GATAAAC,0.222
17,TAACCTT,-3.69
18,TTGCGAG,-0.484
19,CTGTGGT,0.238
20,GGTGCAG,0.636

# System: T2, Rep nickase domain of chickpea chlorotic dwarf virus
# T2 sequence (protein, residues 1-124, tag omitted): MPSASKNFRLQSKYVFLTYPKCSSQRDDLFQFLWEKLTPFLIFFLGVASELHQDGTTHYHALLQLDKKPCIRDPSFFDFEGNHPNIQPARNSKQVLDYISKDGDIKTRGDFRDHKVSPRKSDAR
# Assay: as above
# Description: as §1
row,Sequence,uncleaved DNA left (log2)
1,CACCCTT,-2.44
2,CTTAGGC,0.379
3,TGCTTCT,-2.13
4,GGAGTAC,1.7
5,GGGATCG,1.66
6,TTCTGCT,-1.8
7,GATCATT,0.405
8,CTGCCCT,-1.19
9,CGACCGA,-0.00513
10,TGGACAC,2.04
11,ACCTGAG,0.804
12,TAGTGTC,-0.454
13,ACTTATT,-3.16
14,TGTGGTG,-0.652
15,CTGAGAC,0.663
16,GGTTGGA,0.955
17,CCCCTCT,-1.99
18,AATCCGG,1.25
19,AGGACGG,0.822
20,TACGAAT,-2.13

row,Sequence,uncleaved DNA left (log2)
1,CTTCATG,-0.648
2,ACCATCA,-1.02
3,GACCCCT,-1.91
4,AACATCT,-2.54
5,GCGGATC,1.54
6,CTATACA,-2.11
7,ATAAGTG,-0.613
8,CTTAACA,-2.01
9,CAAAACC,-1.18
10,GAAATTA,-0.427
11,GGGGGCT,1.74
12,CTTAATA,-1.5
13,AAATGGC,-0.752
14,TTCACAA,-0.1
15,TCCGCGG,1.07
16,GATAAAC,0.506
17,TAACCTT,-3.31
18,TTGCGAG,-0.234
19,CTGTGGT,0.0885
20,GGTGCAG,1.5

# System: T3, Rep nickase domain of faba bean necrotic yellows virus
# T3 sequence (protein, residues 1-98, tag omitted): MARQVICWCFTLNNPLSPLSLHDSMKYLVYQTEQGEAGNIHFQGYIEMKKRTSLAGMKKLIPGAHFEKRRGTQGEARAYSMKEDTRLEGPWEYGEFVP
# Assay: as above
# Description: as §1
row,Sequence,uncleaved DNA left (log2)
1,CACCCTT,-0.207
2,CTTAGGC,0.0778
3,TGCTTCT,-0.176
4,GGAGTAC,-0.0143
5,GGGATCG,-0.0377
6,TTCTGCT,-0.00125
7,GATCATT,-0.393
8,CTGCCCT,-0.029
9,CGACCGA,0.0908
10,TGGACAC,-0.0134
11,ACCTGAG,0.157
12,TAGTGTC,-0.863
13,ACTTATT,-0.201
14,TGTGGTG,0.018
15,CTGAGAC,-0.0967
16,GGTTGGA,0.0518
17,CCCCTCT,-0.0923
18,AATCCGG,0.0449
19,AGGACGG,-0.128
20,TACGAAT,-0.043

row,Sequence,uncleaved DNA left (log2)
1,CTTCATG,0.095
2,ACCATCA,0.153
3,GACCCCT,-0.0666
4,AACATCT,0.13
5,GCGGATC,0.157
6,CTATACA,0.00283
7,ATAAGTG,0.0237
8,CTTAACA,-0.162
9,CAAAACC,0.0202
10,GAAATTA,0.0547
11,GGGGGCT,0.0363
12,CTTAATA,0.1
13,AAATGGC,0.117
14,TTCACAA,-0.0575
15,TCCGCGG,0.0216
16,GATAAAC,-0.00297
17,TAACCTT,-0.0691
18,TTGCGAG,0.0483
19,CTGTGGT,0.0326
20,GGTGCAG,-0.0596

# System: T4, Rep nickase domain of maize striate mosaic virus
# T4 sequence (protein, residues 1-117, tag omitted): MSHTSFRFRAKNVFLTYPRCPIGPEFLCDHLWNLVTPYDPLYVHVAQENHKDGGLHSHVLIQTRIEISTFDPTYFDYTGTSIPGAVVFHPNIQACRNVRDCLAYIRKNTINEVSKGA
# Assay: as above
# Description: as §1
row,Sequence,uncleaved DNA left (log2)
1,CACCCTT,-0.0262
2,CTTAGGC,-0.477
3,TGCTTCT,-0.568
4,GGAGTAC,2.06
5,GGGATCG,1.77
6,TTCTGCT,-1.17
7,GATCATT,1.73
8,CTGCCCT,-0.235
9,CGACCGA,-0.17
10,TGGACAC,2.28
11,ACCTGAG,-0.121
12,TAGTGTC,-0.661
13,ACTTATT,-0.916
14,TGTGGTG,-0.672
15,CTGAGAC,0.209
16,GGTTGGA,1.54
17,CCCCTCT,-0.655
18,AATCCGG,1.33
19,AGGACGG,1.63
20,TACGAAT,-0.138

row,Sequence,uncleaved DNA left (log2)
1,CTTCATG,-1.26
2,ACCATCA,-0.834
3,GACCCCT,0.767
4,AACATCT,-0.905
5,GCGGATC,1.97
6,CTATACA,-0.59
7,ATAAGTG,-1.1
8,CTTAACA,-0.579
9,CAAAACC,-0.691
10,GAAATTA,0.914
11,GGGGGCT,2.26
12,CTTAATA,-0.676
13,AAATGGC,-1.2
14,TTCACAA,0.25
15,TCCGCGG,1.29
16,GATAAAC,0.628
17,TAACCTT,-1.84
18,TTGCGAG,-0.812
19,CTGTGGT,0.179
20,GGTGCAG,1.73

# System: T5, Rep nickase domain of porcine circovirus 2
# T5 sequence (protein, residues 2-116, tag omitted): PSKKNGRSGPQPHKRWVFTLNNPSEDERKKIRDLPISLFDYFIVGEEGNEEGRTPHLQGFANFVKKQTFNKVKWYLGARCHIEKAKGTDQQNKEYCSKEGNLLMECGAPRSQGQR
# Assay: as above
# Description: as §1
row,Sequence,uncleaved DNA left (log2)
1,CACCCTT,-1.11
2,CTTAGGC,0.0678
3,TGCTTCT,-2.61
4,GGAGTAC,0.132
5,GGGATCG,0.155
6,TTCTGCT,-3
7,GATCATT,-0.724
8,CTGCCCT,-0.365
9,CGACCGA,0.0854
10,TGGACAC,0.239
11,ACCTGAG,0.232
12,TAGTGTC,-3.01
13,ACTTATT,-3.48
14,TGTGGTG,0.0782
15,CTGAGAC,-0.0226
16,GGTTGGA,0.325
17,CCCCTCT,-0.206
18,AATCCGG,0.0532
19,AGGACGG,-0.0102
20,TACGAAT,-0.354

row,Sequence,uncleaved DNA left (log2)
1,CTTCATG,0.137
2,ACCATCA,0.17
3,GACCCCT,-0.261
4,AACATCT,-1.81
5,GCGGATC,0.241
6,CTATACA,-0.128
7,ATAAGTG,0.249
8,CTTAACA,-0.0182
9,CAAAACC,-0.349
10,GAAATTA,-0.0291
11,GGGGGCT,0.235
12,CTTAATA,0.123
13,AAATGGC,0.125
14,TTCACAA,0.0765
15,TCCGCGG,0.0998
16,GATAAAC,0.0541
17,TAACCTT,-1.35
18,TTGCGAG,0.111
19,CTGTGGT,-2.33
20,GGTGCAG,0.104
